Measurements reported in the supplement of paper PMC3334620.
In all, about 33,000 sequences were measured (“E-score (-0.5 to 0.5)”: median about -0.041, highest 2% from about 0.37 on). The list shows a part of the results.

Biological target: T1, Ecm22 (UniProt Q05958)
T1 sequence: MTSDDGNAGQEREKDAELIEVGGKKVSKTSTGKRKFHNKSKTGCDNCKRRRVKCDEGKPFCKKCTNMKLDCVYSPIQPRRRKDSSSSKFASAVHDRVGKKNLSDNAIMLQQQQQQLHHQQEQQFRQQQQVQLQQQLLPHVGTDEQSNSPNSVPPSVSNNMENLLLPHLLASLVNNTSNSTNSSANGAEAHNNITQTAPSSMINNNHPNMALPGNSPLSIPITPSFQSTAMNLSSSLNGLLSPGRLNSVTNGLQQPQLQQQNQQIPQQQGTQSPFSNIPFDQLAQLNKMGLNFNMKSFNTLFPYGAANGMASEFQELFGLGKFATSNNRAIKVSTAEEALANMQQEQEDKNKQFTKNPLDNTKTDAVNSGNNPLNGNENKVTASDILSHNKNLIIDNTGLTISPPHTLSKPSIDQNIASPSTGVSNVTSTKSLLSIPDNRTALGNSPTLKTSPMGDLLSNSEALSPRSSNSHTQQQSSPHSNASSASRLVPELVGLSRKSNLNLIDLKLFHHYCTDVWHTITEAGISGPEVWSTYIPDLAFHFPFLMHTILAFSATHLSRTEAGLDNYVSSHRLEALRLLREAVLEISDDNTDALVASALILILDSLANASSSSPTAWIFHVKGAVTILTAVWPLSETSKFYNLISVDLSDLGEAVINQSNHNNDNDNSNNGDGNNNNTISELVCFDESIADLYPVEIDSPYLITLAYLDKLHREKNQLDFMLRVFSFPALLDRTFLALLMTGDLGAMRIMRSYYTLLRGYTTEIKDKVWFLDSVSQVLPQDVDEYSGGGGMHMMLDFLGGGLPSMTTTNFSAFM
Assay: PBM E-score (8-mer binding enrichment) (E-score (-0.5 to 0.5)); higher = stronger / more preferred TF binding; most listed sequences are background and not binding sites
Settings: protein concentration: 200 nM; construct: GST-full length
Description: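 Universal 'all 10-mer' protein binding microarrays (Agilent AMADID 015681) probed with GST-tagged S. cerevisiae TFs (full-length or DBD) made by in vitro transcription/translation (PURExpress), about 100-200 nM. Bound TF was detected with fluorescent anti-GST. Each ungapped 8-mer (which stands for itself and its reverse complement) is scored by the PBM enrichment score (E-score), a modified Wilcoxon-Mann-Whitney statistic from -0.5 to +0.5, computed with the Universal PBM Analysis Suite. Scale: above 0.35 generally sequence-specific binding.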

Sequence	PBM E-score
AGCGCAAT	-0.00222
ACTAGGAC	-0.332
AACTCTGA	0.00273
AGATCTTG	-0.146
AACCAGAA	0.00935
GAAAGTGA	-0.193
CCGACCAC	0.0939
TTAGCGAA	0.289
CATTGAAG	-0.272
CGGCTCGC	0.24
CAGCAAAC	0.0897
CCCTACTA	-0.225
GATATGTA	-0.0264
CGATACGA	0.454
ACTTTTAT	-0.217
TAGCGTGA	-0.0134
TGGGTACA	-0.127
AATAAGAT	-0.0294
GGGTAATA	0.0371
ATCATTTG	-0.0915
CCCCTACC	-0.121
ACAAAAAG	0.14
GAAGTAGA	0.0842
ACAAGCAT	-0.148
ATGCTGAC	-0.0984

Sequence	PBM E-score
TCACTGCA	-0.0663
TAAACGGA	0.433
CGATGCTC	0.106
AGCCACAG	-0.205
CGTTATGC	0.00819
CTTACTGA	0.0265
CCCGATAG	-0.0167
ATCTACAC	0.0981
CGGCCTAC	-0.0412
ACTTTGTA	-0.115
CAATTCCA	-0.195
CTCTCATA	0.00899
GTTCGGTA	0.211
TGGCCGAA	-0.102
AACGGATG	0.241
CGTCTACA	-0.0865
GTTACATA	-0.0158
ACTTTGTG	0.118
CGCCACGA	0.0548
ACCAAATA	0.00701
ACGCGGGA	0.062
GCCTGCAC	-0.261
AGTCGCTC	0.177
CAGCATTC	-0.13
ATCTGAAC	-0.0158

Sequence	PBM E-score
ACTTCTGG	-0.309
CGATGCTA	0.0845
CATGACAC	-0.0855
CCAACATA	0.0406
CAAGTCTG	-0.194
CAGGGTGA	-0.192
CGTGCGCA	-0.0738
CCCTAAGC	-0.268
ATCGTCCC	-0.0583
GACCGAGA	0.206
AACCTCGC	0.0711
CCCTCCAG	-0.206
AAGCGTCG	0.155
GTTGCCGA	0.227
TAACTTGA	-0.0895
CGTCTTCC	-0.227
GCCATCAA	-0.107
CCTACGCA	-0.0721
AGCCTACT	-0.228
CTCCATTA	-0.276
AGGCAGCA	-0.2
CGTGCCAG	-0.206
AAGGTGAT	-0.117
CCGACGAC	0.167
AATATAAT	-0.00206

Sequence	PBM E-score
CCTTAGAC	-0.122
ACCACAAA	0.0136
AAGGACGA	-0.00354
CAATCTCG	0.137
GACGTATC	0.0755
CGACGCCG	0.167
AAAAGAGG	0.0679
GAATTCGC	0.141
ATGCTCCA	-0.286
GCTTTGAC	-0.00291
AGGTATAC	0.26
ACCGGGCC	-0.107
ACCGACAC	0.236
TAGTAGGA	-0.193
ACTAACAA	-0.00572
TCCAACAA	-0.0854
CCCTACCC	-0.132
GACGTGCA	0.0366
AGATGACT	-0.143
AGGCCTCG	0.189
AATATTCG	0.228
GCAAACGC	0.0881
CTACGGGC	-0.0464
TCAAGTGA	-0.116
TCTCAGAA	-0.265

Sequence	PBM E-score
TGGGAAAA	-0.151
CAATGCGC	-0.019
AATATTGA	0.122
AAGCATTA	-0.0316
AGAACCTC	-0.146
TAATTGTA	0.0941
CTGGGGAA	-0.174
ATCATCAC	-0.118
CCGTAGCG	0.275
ACTTCGCA	0.18
ACACCGTA	0.313
CCTCATCC	-0.272
CAGGTAGC	-0.239
AATCAATT	-0.112
ATACGTCC	0.111
AGCTAGCG	0.045
AGGCACTA	0.00445
AGGATACC	-0.101
AGTTTAGA	-0.186
AAACACGT	0.034
ACAGATCC	0.0962
ACAAGTCG	0.065
CCTATAAG	-0.0614
AGGTGGAA	-0.0633
ATTGGCTA	0.0991

Sequence	PBM E-score
GTAACGTA	0.228
CTTTATCC	0.0548
ACCGAAGA	0.0871
CAAGCAAC	0.00354
CTCGGCAA	0.106
AATTCTAG	0.119
GTGACCAA	-0.0804
CTCTGGCC	-0.119
ATGATACG	0.377
GACGGGAA	0.133
GAAGTCCC	-0.172
AGAGTTGA	0.0512
CATTTCTA	0.0498
AGATTTCG	0.301
ACCGGCCG	0.0212
TGTACCAA	0.036
GAACCCAC	0.118
CCGCACAG	0.0576
ATTCATAA	0.0712
CGGCAAGC	-0.0285
CCCTGGCG	-0.0685
AGGCAATG	-0.113
CTCGTGCC	0.18
CTGCTGGA	-0.3
CCATGACA	-0.256

Sequence	PBM E-score
ACCTATTA	-0.181
ATAAACTC	0.00565
CAGTATCG	0.049
ACAAGCCA	-0.0197
AGAGTACT	-0.0868
CGACATTC	0.19
CAACTTGG	0.114
AGGGTGAG	-0.218
CTATATCC	-0.0511
GACCTTAA	-0.117
AGGGTGAC	-0.133
ATATCCTC	-0.125
AACTATCT	0.126
AACTGAAT	-0.0633
GCCTCCCC	-0.134
CTCGTCGA	0.0444
GCAGACGC	-0.093
AAGGGGTC	-0.155
GAGGTACA	-0.0135
CTATTCGC	0.0806
GTAATCAA	0.0204
AGTCCTGC	-0.111
